# The list shows a part of the results. The data describe in vitro nicking of single-stranded DNA by Rep domains at 3 µM enzyme and 37 °C for 1 h; the strands have 90 letters, of which the middle is given. Numbers give uncut DNA relative to the enzyme-free pool, as log2; the lower, the more was cut; hits are not called. Reads are scaled to the total, so uncut sequences can rise above 0 when many others are cut.
# Tested on: T1, Rep nickase domain of tomato golden mosaic virus
# T1 sequence (residues 1-124, tag not shown): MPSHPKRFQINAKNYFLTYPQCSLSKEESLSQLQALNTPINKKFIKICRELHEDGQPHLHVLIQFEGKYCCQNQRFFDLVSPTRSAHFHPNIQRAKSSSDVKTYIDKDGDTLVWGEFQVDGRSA
# Test: uncleaved DNA left, log2 of reads against the no-enzyme library (log2 ratio); higher = less cleavage (more negative = more Rep cleavage of the k-mer); sequences stand for … in CTCGTCCG…ACCGGAGA
# Procedure: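 A pool of 90-nt single-stranded DNAs with seven random bases just before the constant AC of the nick site (name = the seven bases) was cut by 3 µM recombinant His6-SUMO-tagged Rep nickase domain (300 nM DNA, 50 mM HEPES pH 8.0, 50 mM NaCl, 1 mM MnCl2, 1 h, 37 °C, three replicates). Uncut DNA was amplified and sequenced.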
row,Sequence,uncleaved DNA left (log2)
1,GCATGGG,-0.0173
2,AACTCTG,0.0718
3,GTGATCC,0.21
4,GTGTGCT,-0.0952
5,CCATGAT,-0.176
6,GACCATC,-0.0692
7,GGTTCCC,-0.119
8,GACCAAA,-0.0836
9,TCGGAGC,-0.0188
10,GGCATCG,0.0628
11,GGCTGGT,-0.0621
12,ACCAAGA,0.0339
13,GAGTCAC,-0.00914
14,ACTGGTA,0.0056
15,CTTGCTT,-0.164
16,CAGAATA,-0.0607
17,ATACGGT,0.000895
18,TATGACA,-0.0376
19,AAGCCTT,-0.159
20,AAGAGAG,-0.000505

row,Sequence,uncleaved DNA left (log2)
1,CTGGCGG,0.193
2,TAAACCT,-3.07
3,GGCTAAA,0.139
4,TCGTGTT,-0.887
5,CCCTCTG,-0.131
6,TTCCGGT,-0.0425
7,ATGCACG,-0.132
8,GTGCCCC,0.0165
9,GTGGGTT,-0.0999
10,CGAGTCG,-0.0888
11,GGCTACA,0.0529
12,GCTCCGA,0.0756
13,CGTTGAT,0.0603
14,ACTCAGT,0.131
15,CAACTCT,-0.23
16,CCAGTGG,-0.0211
17,CCAGTGT,-0.00612
18,TCGGACT,0.00593
19,GGGGGCT,-0.00906
20,GTGACCT,0.0128
